Experimental data as given in US8722849B2, “Polypeptides” (Novo Nordisk A/S, priority 2011, dated 2014).
The name of at least one read-out is uncertain. Starred links: 1 amine or outer side, 2 acyl side, 3 side chain; linkers in the order of their positions; H or OH if unused. Positions of bridges follow the written chain, without caps; N, C: chain ends. Residues, ends and D or L forms follow the SMILES beside them. *: point of attachment. C20 diacid = O=C(O)CCCCCCCCCCCCCCCCCCC(=O)*; γGlu = O=C(O)[C@H](CCC(=O)[*:2])N[*:1]

Test: Assay (III) ThT fibrillation assay for physical stability
Assay type: physicochemical
Settings: ThT fibrillation assay
Outline: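 Freshly prepared formulations, pH-adjusted, with 1 μM ThT; four or eight replicates incubated at 37 °C under 960 rpm orbital shaking. Fluorescence (ex 444/em 485 nm) read every 20 min; […]. Peptide concentration measured by RP-HPLC before and after the run.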

| Compound | ThT pH 4.0 recovery [%] | ThT pH 4.0 recovery (%) |
| --- | --- | --- |
| CC[C@H](C)[C@H](NC(=O)[C@@H]1CCCN1C(=O)CNC(=O)[C@H](Cc1ccccc1)NC(=O)[C@H](CC(N)=O)NC(=O)[C@H](CC(N)=O)NC(=O)[C@H](CO)NC(=O)[C@H](CO)NC(=O)[C@H](Cc1c[nH]cn1)NC(=O)[C@H](CCCNC(=N)N)NC(=O)[C@H](CC(C)C)NC(=O)[C@H](Cc1ccccc1)NC(=O)[C@H](CCC(=O)O)NC(=O)[C@H](C)NC(=O)[C@H](CC(C)C)NC(=O)[C@H](CCCNC(=N)N)NC(=O)[C@H](CCC(N)=O)NC(=O)[C@@H](NC(=O)[C@H](C)NC(=O)[C@@H]1CSSC[C@H](NC(=O)[C@H](CCCCN)NC(=O)CC[C@H](NC(=O)CCCCCCCCCCCCCCCCCCC(=O)O)C(=O)O)C(=O)N[C@@H](CC(N)=O)C(=O)N[C@@H]([C@@H](C)O)C(=O)N[C@@H](C)C(=O)N[C@@H]([C@@H](C)O)C(=O)N1)[C@@H](C)O)C(=O)N[C@@H](CC(C)C)C(=O)N1CCC[C@H]1C(=O)N1CCC[C@H]1C(=O)N[C@H](C(=O)N[C@@H](CC(N)=O)C(=O)N[C@H](C(=O)NCC(=O)N[C@@H](CO)C(=O)N[C@@H](CC(N)=O)C(=O)N[C@H](C(=O)N1CCC[C@H]1C(N)=O)[C@@H](C)O)C(C)C)[C@@H](C)O [Example 53, N-alpha-[(S)-4-Carboxy-4-(19-carboxynonadecanoylamino)butyryl]-[Glu14,Arg17,Pro37]-pramlintide] | 96.2 | 96.2 |
| CC[C@H](C)[C@H](NC(=O)[C@@H]1CCCN1C(=O)CNC(=O)[C@H](Cc1ccccc1)NC(=O)[C@H](CC(N)=O)NC(=O)[C@H](CC(N)=O)NC(=O)[C@H](CO)NC(=O)[C@H](CO)NC(=O)[C@H](Cc1c[nH]cn1)NC(=O)[C@H](Cc1c[nH]cn1)NC(=O)[C@H](CC(C)C)NC(=O)[C@H](Cc1ccccc1)NC(=O)[C@H](CCC(=O)O)NC(=O)[C@H](C)NC(=O)[C@H](CC(C)C)NC(=O)[C@H](CCCNC(=N)N)NC(=O)[C@H](CCC(N)=O)NC(=O)[C@@H](NC(=O)[C@H](C)NC(=O)[C@@H]1CSSC[C@H](NC(=O)[C@H](Cc2c[nH]cn2)NC(=O)[C@H](CCC(=O)O)NC(=O)CC[C@H](NC(=O)CCCCCCCCCCCCCCCCCCC(=O)O)C(=O)O)C(=O)N[C@@H](CC(N)=O)C(=O)N[C@@H]([C@@H](C)O)C(=O)N[C@@H](C)C(=O)N[C@@H]([C@@H](C)O)C(=O)N1)[C@@H](C)O)C(=O)N[C@@H](CC(C)C)C(=O)N1CCC[C@H]1C(=O)N1CCC[C@H]1C(=O)N[C@H](C(=O)N[C@@H](CC(N)=O)C(=O)N[C@H](C(=O)NCC(=O)N[C@@H](CO)C(=O)N[C@@H](CC(N)=O)C(=O)N[C@H](C(=O)N[C@@H](Cc1ccc(O)cc1)C(N)=O)[C@@H](C)O)C(C)C)[C@@H](C)O [Example 40, N-alpha-[(S)-4-Carboxy-4-(19-carboxynonadecanoylamino)butyryl]-Glu-[His1,Glu14,His17]-pramlintide] ({C20 diacid-γGlu}-EHCNTATCATQRLAEFLHHSSNNFGPILPPTNVGSNTY-NH2; disulfide 3-8 (inferred); C-terminus assumed) | – | 2 |
